From paper PMC4336329 (PLoS ONE, 2015) come the findings set out here.

Out of some 310,000 compounds screened, about 14,000 (4.5%) showed an effect of 50% or more. The effect is printed as a negative number. The list shows a part of the results.
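Also: peak tail current of the secondary pulse compared with the same well before compound.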

The target in the assay is human ether-à-go-go-related gene (hERG) potassium channel (human, UniProt Q12809). In words: primary screen, population patch clamp on CHO cells stably expressing hERG.
Sequence of human ether-à-go-go-related gene (hERG) potassium channel (Q12809 whole entry, looked up): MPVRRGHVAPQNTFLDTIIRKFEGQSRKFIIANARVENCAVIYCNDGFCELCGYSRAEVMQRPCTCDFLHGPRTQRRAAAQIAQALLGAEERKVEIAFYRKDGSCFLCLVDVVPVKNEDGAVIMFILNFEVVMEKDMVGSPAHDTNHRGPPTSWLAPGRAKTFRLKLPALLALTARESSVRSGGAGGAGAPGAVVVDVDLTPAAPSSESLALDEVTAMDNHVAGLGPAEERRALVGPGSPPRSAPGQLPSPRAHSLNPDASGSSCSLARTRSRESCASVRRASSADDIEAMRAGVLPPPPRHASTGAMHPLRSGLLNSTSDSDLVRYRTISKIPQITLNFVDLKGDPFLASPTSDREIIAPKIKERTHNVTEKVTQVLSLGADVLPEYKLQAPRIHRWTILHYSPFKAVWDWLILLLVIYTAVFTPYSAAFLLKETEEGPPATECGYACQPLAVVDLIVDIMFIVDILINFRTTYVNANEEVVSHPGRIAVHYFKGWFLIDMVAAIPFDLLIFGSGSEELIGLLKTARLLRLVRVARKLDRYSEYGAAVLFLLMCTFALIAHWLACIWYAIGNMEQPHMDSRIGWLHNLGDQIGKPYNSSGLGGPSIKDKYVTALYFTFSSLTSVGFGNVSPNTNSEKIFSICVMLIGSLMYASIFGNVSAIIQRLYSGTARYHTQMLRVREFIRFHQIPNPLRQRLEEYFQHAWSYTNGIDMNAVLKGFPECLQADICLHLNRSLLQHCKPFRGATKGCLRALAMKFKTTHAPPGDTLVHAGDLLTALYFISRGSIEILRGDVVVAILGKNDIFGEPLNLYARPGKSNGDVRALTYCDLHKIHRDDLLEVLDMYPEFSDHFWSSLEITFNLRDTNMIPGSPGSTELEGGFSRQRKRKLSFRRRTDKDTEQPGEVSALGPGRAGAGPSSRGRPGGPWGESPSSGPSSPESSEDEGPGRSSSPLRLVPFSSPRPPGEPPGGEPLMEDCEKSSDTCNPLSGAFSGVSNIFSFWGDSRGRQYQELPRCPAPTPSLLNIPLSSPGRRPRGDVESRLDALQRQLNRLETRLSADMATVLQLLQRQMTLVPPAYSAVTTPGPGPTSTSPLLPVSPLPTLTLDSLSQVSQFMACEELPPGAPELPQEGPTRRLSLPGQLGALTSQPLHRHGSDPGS
As for `Cc1nc2ccc(-c3nc4cc(N)ccc4o3)cc2[nH]1`, the “hERG current change (%, negative = inhibition) at 10uM” value is 15.7%. As to `CC(C)C(NC(=O)OCc1ccccc1)C(=O)NC1CCCCC1` (stereo not drawn), the “hERG current change (%, negative = inhibition) at 10uM” value worked out at 6.38%.

For `COc1cccc(C(=O)NCCS(=O)(=O)NCc2ccccn2)c1`, the “hERG current change (%, negative = inhibition) at 10uM” value was 0.974%. The same measure for `CCc1nccc2c1[nH]c1ccccc12`: -35.2%. As to `C=CCn1c(O)c(/C=C2/C=c3ccccc3=N2)c(=O)[nH]c1=S`, the “hERG current change (%, negative = inhibition) at 10uM” value worked out at 20.7%. The figure for `O=C(Cn1c(=O)cnc2ccccc21)Nc1cccc(S(=O)(=O)N2CCCCC2)c1` is -50.3%. The figure for `Oc1ccc(C2=NNC(c3ccc(O)cc3)=NN2)cc1` is -18.8%; for `N#CCCN(C(=O)COC(=O)c1nc(Cl)ccc1Cl)c1ccccc1` it is 12.9%.

`CCN(CC)S(=O)(=O)c1cc(C(=O)OCC(=O)Nc2c(F)cccc2F)ccc1F`: the “hERG current change (%, negative = inhibition) at 10uM” value is listed as -11.9%. `OCC1(CCOc2ccccc2)CCN(Cc2ccc(OC(F)F)cc2)CC1`: the “hERG current change (%, negative = inhibition) at 10uM” value is listed as -79%.

Regarding `C=CCNC(=O)c1nc2ccccc2s1`, the “hERG current change (%, negative = inhibition) at 10uM” value is on record as -4.67%. With `COc1ccc(/C=N/N=C2/NC(=O)C(c3ccccc3)(c3ccccc3)S2)cc1`, the “hERG current change (%, negative = inhibition) at 10uM” value amounted to 13.3%.

`COc1ccc(C(=O)NC(=S)Nc2ccc3oc(=O)ccc3c2)cc1[N+](=O)[O-]`: the “hERG current change (%, negative = inhibition) at 10uM” value was determined as 8.84%.

With `CCc1ccccc1Oc1ccc(S(=O)(=O)N2CCN(C)CC2)cn1`, the “hERG current change (%, negative = inhibition) at 10uM” value is recorded as -6.65%. The figure for `COc1ccccc1NS(=O)(=O)c1ccc(C)c(C(=O)NCc2cccnc2)c1` is -17.9%. The same measure for `COC(=O)CCN(C(=O)c1ccc2c(c1)OCO2)c1ccccn1`: 11.4%; for `O=C1CCCC(O)=C1C=NCCc1ccccc1`: 4.42%.

Regarding `O=C(NCc1ccco1)C1CCCN(S(=O)(=O)c2ccc(Br)cc2)C1` (stereo not drawn), the “hERG current change (%, negative = inhibition) at 10uM” value is 1.49%.

Take `CN(C)c1nc(=S)nc(NCc2ccccc2)[nH]1`: the “hERG current change (%, negative = inhibition) at 10uM” value is given as 10.9%.

Turning to `COc1cc(/C=N/NC(=O)c2sc(N)c(C#N)c2C)cc(Br)c1O`, the “hERG current change (%, negative = inhibition) at 10uM” value is 11.3%. The same measure for `C=CCNC(=O)c1ccc(N(C)S(=O)(=O)c2ccc(OC)cc2)cc1`: -57.4%; for `O=C(CSc1nncs1)Nc1ccc2c(c1)OCCO2`: 13.3%. The same measure for `Cc1cccc(C(C)C)c1NC(=O)C(C)OC(=O)Cn1cnc2c1c(=O)n(C)c(=O)n2C` (stereo not drawn): -2.52%; for `Cc1c(NC(=O)c2ccc(N(C)S(=O)(=O)c3ccccc3)cc2)c(=O)n(-c2ccccc2)n1C`: 8.24%; for `CCOC(=O)C1CCN(C(=O)C2CCCCC2)CC1`: -2.91%.

Take `CC(=O)Nc1c([N+](=O)[O-])cc(C)c(Cl)c1[N+](=O)[O-]`: the “hERG current change (%, negative = inhibition) at 10uM” value is 6.22%.

Consider `CC1CCCCC1NC(=O)CN1CCC(NC(=O)c2cccc(F)c2)CC1` (stereo not drawn), for which the “hERG current change (%, negative = inhibition) at 10uM” value is recorded as -11.3%.

With `CC(C(=O)NCc1ccc(Cl)cc1)n1cccc1C(=O)c1ccccc1` (stereo not drawn), the “hERG current change (%, negative = inhibition) at 10uM” value was -21.4%. The figure for `C[C@@H]1NC(=O)c2cc([N+](=O)[O-])cc(F)c2NCCC[C@@H](C(N)=O)NC(=O)[C@H](CC(N)=O)NC1=O` is 30%. Regarding `CCOC(=O)CSc1nc2c(c(=O)[nH]c(=O)n2C)n1CCc1ccccc1`, the “hERG current change (%, negative = inhibition) at 10uM” value is recorded as -1.16%. The same measure for `CC(C)c1nc(SCC(=O)Nc2cccc(S(N)(=O)=O)c2)n[nH]1`: 8.6%; for `c1cnc(SCCOc2ccc3c(c2)CCC3)nc1`: 4.62%; for `CCOC(=O)C1CSc2[nH]c(=O)sc2C1c1ccccc1` (stereo not drawn): -25%. The figure for `COc1ccc(OC)c(NC(=S)N2CCN(Cc3ccccc3)CC2)c1` is 11%.

In the case of `COc1cccc(COC(=O)c2nn(-c3ccccc3)nc2N)c1`, the “hERG current change (%, negative = inhibition) at 10uM” value is reported as 17.1%. The figure for `Cc1ccc2nc(CSc3nnc(-c4ccco4)o3)cc(=O)n2c1` is -64.9%. With `CCOc1ccc(NCc2cc3c(C(C)(C)C)nn(-c4ccccc4)c3[nH]c2=O)cc1`, the “hERG current change (%, negative = inhibition) at 10uM” value is listed as -6.53%. The same measure for `CC1=C(C(=O)OCCOC(C)C)C(c2cccc3ccccc23)NC(=O)N1` (stereo not drawn): -6.59%. The same measure for `Cn1c(=O)[nH]c(=O)c2c1nc(N1CCCCCC1)n2CCCSc1nc2ccccc2o1`: -38.3%. The figure for `COc1ccc(C(CNC(=O)C(CCSC)NC(=O)c2ccccc2Cl)N2CCCC2)cc1` (stereo not drawn) is -34.9%; for `COC(=O)c1ccc(NC(=O)Cc2ccc(C)cc2)cc1` it is 21.5%; for `OC1(CC#CCN2CCCCC2)c2ccccc2-c2ccccc21` it is -24.1%.

With `C=C(C)C1CC=C(C)/C(=N/NC(=O)c2cccc([N+](=O)[O-])c2)C1` (stereo not drawn), the “hERG current change (%, negative = inhibition) at 10uM” value was 10.5%. Turning to `COc1ccc(C(CC(=O)O)NC(=O)c2cccs2)cc1` (stereo not drawn), the “hERG current change (%, negative = inhibition) at 10uM” value was 9.07%. The same measure for `O=c1c2ccccc2c2ccccc2c(=O)n1Cc1ccco1`: 3.47%; for `Cc1noc(C)c1CSc1nc2ccccc2[nH]1`: 7.07%. With `CCn1cc(C(=O)N2CCCC(N3CCN(c4cccc(C(F)(F)F)c4)CC3)C2)cn1` (stereo not drawn), the “hERG current change (%, negative = inhibition) at 10uM” value was -29.2%. The same measure for `O=C(CSc1nc2ccccc2o1)Nc1nc2ccc(Br)cc2s1`: 6.54%. The figure for `N#CCCN(CCC#N)C(=O)COc1ccc(Cl)cc1Cl` is -13.6%; for `Cc1ccc(N2CCN(S(=O)(=O)c3ccc(F)cc3)CC2)c(C)c1` it is 9.58%; for `Cc1nn(CC2CC2)c(=O)n1-c1ccc(C(C)C)cc1` it is 2.14%. The figure for `Cc1ccc[n+](/C(=C\C(=C=[N-])C#N)C(=O)c2ccc(Cl)cc2)c1` is -8.65%; for `COc1ccc(S(=O)(=O)NC(C)C(=O)NCc2ccncc2)cc1C` (stereo not drawn) it is 15.3%; for `COCCn1c(=NC(=O)c2nc3ccccc3s2)sc2cc(S(C)(=O)=O)ccc21` it is -21%. With `Br.c1ccc(NNC2=NCCS2)cc1`, the “hERG current change (%, negative = inhibition) at 10uM” value is listed as 19.8%.

As for `CCc1cccc(NS(=O)(=O)c2c(C)[nH]c(=O)[nH]c2=O)c1`, the “hERG current change (%, negative = inhibition) at 10uM” value came out at 20.8%. The same measure for `CCN(C(=O)CN1c2ccccc2CC1C)c1c(N)n(Cc2ccccc2)c(=O)[nH]c1=O` (stereo not drawn): 20.4%.
